According to the RNAGym collection of RNA variant scans (doi:10.7554/elife.90254):
Read counts are not given, so values of variants with three or more changes are uncertain.

B1: LINE1-full (parent)
chain: UACGUAGGUGGUUUUCCCCUGAUAGUGCUAAGGGGGCCUGGAAGUUUGGACUGGGCAGAGCUCAACACAGCGUGGCAAAGUGGCUGUGGCUAGACUGCCUCUCUGGAUUCCUCGUCACUCAGCAGGGCAUCUCUGAGAGAAAUGCC

Variants of: B1
Assay: self-cleavage, relative activity (ratio to wild type); higher = more cleavage; in vitro, sequencing; the parent is a self-cleaving ribozyme

Variant	self-cleavage
U12C U14C U73A	1.19
U5C A6G A136G	1.36
G49A U132A A141G	1.08
A50G U104A U119C	0.75
A64G A117G A142U	0.3
A24G A43G U45G	1.15
U5A U109A A129U	1.15
G83A A117G U119A	1.12
A50G U62C U143A	0
U15A U26A A31C G49U C90U U91C	0.05
U91C U108C U132C	0
C84U U91C U102C	0.18
A2G U73C G135A G137A	0
G33A A79G A107G C113U A129G	0
A65G U96A G114A A140G	0
U5C G54A U115C	1.08
U47A U85G A107U	0.1
U13C A79G U109A	1.1
U13C U100C G114A	2
A24G U45C G75U	0.99
G32A U47C A69U U81A U119C	0.07
U14C A77G C99G U115C A121C	0.92
A65U U104A A117U	0.04
U9C U119A A138G G144A	1.31

Variant	self-cleavage
U14A A30G U132C	0.8
U62C A67G G97A	0.06
U104C U109A A124U A141G	1.78
U13C C56A A124U	0.09
G48A A57G A77G U85A C128U	0.05
U13C U20A U73C A121U	1.5
U46A U52A U87C	0.18
C16A U39C A50G U62A U108C U132C U143C	0
U29C U87C U132C	0
G40A U87A U96A	0.03
U47A A141G A142G	1.33
C19A U46A A92G A142G	0.06
U15C A50G U87C G122A	0.13
A6U A77U U104C A107U U130C	2.58
A42G U45A U47A A129G A136G C146U	0.96
G48A G58U A69C	0.02
G21C C37U U115C	1.46
U73G A124G U134C	1.48
U14G A42G A57U U62C	0.24
U46C A77U U132C	1.17
U23C A50G A69U A79G U100C	0
U29A U115A A129G	2.12
U20C G60A A79G	0
A57U A107G U134A	0.13

Variant	self-cleavage
U13G U15C A42G A129C	0.92
U12C U46C U134A	1.63
C118A U132C A141G	1.39
A43G U47A A57G U62A A94G	0
A22G A67U C71G U91C U96C U143C	0.08
U20C G126A A138U	1.87
U15A U39C U47A A59G	0.21
U14C C51U G127U	2.03
A31U G34A U39C A78G A121G	0.53
U12G A42G U47C G93A	0.16
A64G U81A U85C U96C	0
U39C U47C U134C	1.58
G34A U119C U132C A138G	0.81
U5C U15C U26C A65G	0
G34A U62C A129U C131U A136U	0.04
C19A A43G A77G A121G	1.71
A24G U81A U100C U115A	2.97
A22G U23C C56U U112A A142G	0.23
A30U U73A A77G	1.42
G32A A65G G70A U134A	0
U5A U12C A136G	0.66
U13C U112C A136G U143C	1.15
A64G U119C A121G	0
C3U U15A U39A U87G	0.63

Variant	self-cleavage
U45C C99A A129G	0.59
G25A A31G A65G A124G A129G A141G	0
U14C G49A C56A	0.09
U13C G34U A57G A141G	1.41
U20C U73C A77U	1.84
C61U A77U U81A U108C A124G U132C	0.01
U9A A43G A124C	0.3
U5C U23A G75A U87C	0.2
U26A A79G U96C U102C U134C	0
U14C A107U A142G	0.8
U26C A57U C76G U115C U130C	0
A6G U39C U47G U52C	0
U14A A79G A92G	0
U87C U100A U112A U134C	0.08
U5C U20C A22G G41A U100C	1.79
U62C A92G U134C	0.07
U12G U62C A67U U73G U130C A142G	0
G72U A79U U102C	1.31
U20G U104C U112A	2.24
U9C U14A U73A	1.07
A2G U62A U104A	0.16
A43G U87C A124U U143C	0.08
G11A U15A A69G A138G	0.6
A64G A92G U112C A141G	0

Variant	self-cleavage
A22G A50U A138G A141G	0.62
A59G A107G A142G	0
A2G U14C U26C U115A	0
U52A G54C C63U A67U A94G U112A A141G	0.05
A42G C76U U100C	1.55
U45C A77U A94G	0.42
U52C U73A A121U	0.36
U29C G40A U134C	1.1
U14C U104C C128U	0.48
U29C U85C U96C	0.56
U5C U12A U81C C131U	2.76
U26C U45A U52A U109A U134G A141G	1.13
U13A G35U U87C U96C	0.09
A43G G74A A117U	0.41
C3U U26C U119A	1.04
U12G U115C C120U A121G	2.58
U23C U96A A117C	0.03
A50G A94U U132C A140G	0.28
U13A U29A A30G U115C A140G	1.02
G33A A42U A140G	0.78
U23A U130C U134C	1.07
U20A U47C U108C	0.6
A24U U87C U134A A141G	0.07
U23A U73A C84U	0.28

Variant	self-cleavage
C16A A67U G75U U85C A107G	0.03
C3U A31U A67G	0.59
U47A A79G U143G	0.96
A2G G27A G40U G114C U143A	0.51
U13C A67G A140U	0.57
U15A U47C A50U U73C G125A U143C	1.06
U13C U46C U47A U119A U132C	1.93
A43G U85C A129U	0
U13A G58A A67U U100C	0.03
U5A U108C U115C	1.08
G7A U14C U39A G53A A138G	1.84
C19U U85A U134A	0.14
A2G U47C A92U	0.43
U15C G27A U85A U104C	0.02
A43G U108C A136U	1.53
U9A G54A A142G	0.06
U12G A42G U47A	2.68
U13C A59U U108C	1.44
U1C U52C A65G	0.14
U62C A65C U109C C113U A117G	0.2
A42G A94U A129U	0.28
G72A U87A C120U	0.04
A43G A107G U130A A140G	1.08
A42U U73C U81A C98G	0.14

Variant	self-cleavage
U1A U12A A67G G88U	0.16
A30G A59G U130C	0.66
A24G G32A U73C U81A	1.45
U46C A67G U115A	0.84
A57U U104G U119A C120U	0.04
U12C G54A U130C A138G	2.01
A22G G75A U91A	0.41
U73A A117G U119C	0.37
A69U U73C A92U A107G U132C	0.19
U12G A121G U134G A141G	1.47
G34C A57U U62A U115A	0.04
C38U U115C G126A A141G	1.78
A78G G106A A141G	1.42
U13C C71U U100A	0.11
A2U U45A U62C	0
G75A C113U A117U	0.61
U46A U47G A64U U73C C113U	0.32
U9C U26C C99A	0.71
U13C A42G A43G	1.43
U108A U115G A117U	1.47
A22G U104C U130C	1.15
A78G U91A C146U	0.61
U13A A42G U46A U87A	0.04
